The values that follow come from ChEMBL document CHEMBL1201862, “PubChem BioAssay data set” (2004).

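Assay format: 96-well plates, 48-hour exposure. Abbreviation: GI50, concentration required for 50% inhibition of growth.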 The source made the active and inactive calls. Rule as the data show it: active = GI50 up to about 1.1 µM and inactive = higher.

In the test the test system is NCI-H322M. The experiment in a line: NCI-60 cell line screen, 48 h.
Take `O=C(O)C[S+]([O-])c1ccc2c3c(cccc13)C(=O)c1ccccc1-2` (centres undefined): the GI50 was inactive: > 100 µM.
As for `Oc1cc(O)c2c(c1)OC(c1ccc(O)c(O)c1)C(O)C2c1c(O)cc(O)c2c1OC(c1ccc(O)c(O)c1)C(O)C2` (centres undefined), the GI50 is inactive: > 100 µM.
As to `CN1CCN(Cc2nc3cccc4c3c([n+]2[O-])-c2ccccc2-4)CC1`, the GI50 is inactive: 7.64 µM.
Turning to `CNc1ccc(/C=C2\C=Cc3ccccc32)cc1`, the GI50 is inactive: 28.7 µM.
The same measure for `Cc1ccc(C)c(N2C(=O)C(=O)C(c3nc4ccccc4s3)/C(=N/N)C2=O)c1` (centres undefined): inactive: > 100 µM; for `O=C(NC(=O)c1cn(CCNCCO)c(=O)[nH]c1=O)OCc1ccccc1`: inactive: > 100 µM; for `COc1ccc(COC(=O)NNC(=O)C2CSC(c3ccccc3)N2C(C)=O)cc1` (centres undefined): inactive: > 100 µM.
`CCc1nc(N)nc(N)c1-c1ccc([N+](C)(C)C)cc1`: the GI50 was inactive: > 100 µM.
Consider `COc1cc(/C=C2/SC(c3ccccc3)N(c3ccccc3Cl)C2=O)cc(OC)c1OC` (centres undefined), for which the GI50 is inactive: 35.8 µM.
Regarding `CC/C=C\C/C=C\C1CC(=O)NCCCNCCCCN1` (centres undefined), the GI50 was inactive: > 100 µM.
Turning to `O=C(O)c1nc2cc(C(F)(F)F)ccc2nc1Nc1ccc(Cl)c(Cl)c1`, the GI50 was inactive: 19.5 µM.
`C[N+](C)(C)CC1CCCCCCCCCCC1=O` (centres undefined): the GI50 is inactive: > 100 µM.
The same measure for `Cc1c(Cl)cccc1NC(=O)C(=O)C1C(=O)NC(=O)NC1=O`: inactive: > 100 µM; for `CCOC(=O)/C1=C(\C)N(Cc2ccccc2)C(=O)c2ccccc2C(=O)c2c(OC(C)=O)ccc(OC(C)=O)c21`: inactive: 48.5 µM.
Consider `NC(=O)CCC(NC(=O)Cc1ccccc1)C(=O)O` (centres undefined), for which the GI50 was inactive: > 2470 µM.
Regarding `COC(=O)[C@H](Cc1c[nH]c2ccccc12)NP(=O)(O)OCC1C=CC(n2cc(C)c(=O)[nH]c2=O)O1` (some centres undefined), the GI50 was inactive: > 100 µM.
Regarding `CC1(CCCC2(C)CCNC2=O)OCCO1` (centres undefined), the GI50 is inactive: > 10 µM.
Consider `O=S(=O)(N/N=C/c1c(Cl)cccc1Cl)c1ccccc1`, for which the GI50 is inactive: > 100 µM.
The same measure for `CN1NC(c2ccccc2)=C(C#N)C(=O)CC1c1ccc(Br)cc1` (centres undefined): inactive: 36.1 µM; for `Cc1ccc2nc3c(=O)[nH]c(=O)nc-3n(C)c2c1C`: inactive: > 100 µM; for `CC1=C(C)Cc2c(O)ccc(O)c2C1`: inactive: > 100 µM.
As for `O=C1N(c2ccccc2)C2(c3ccccc3)CC3CCCC13S2` (centres undefined), the GI50 was inactive: > 100 µM.
With `COc1cc(CNC(=O)[C@H](Cc2ccc(O)cn2)NC(C)=O)cc(OC)c1`, the GI50 is inactive: 94.4 µM.
For the molecule `Nc1nc(Nc2ccccc2)c2[nH]cnc2n1`, the GI50 is inactive: > 100 µM.
With `O=C(O)CCSC(=S)Nc1ccc([N+](=O)[O-])cc1`, the GI50 was inactive: > 90.6 µM.
Regarding `N#C[C@H]1C(=O)C(c2nc3ccccc3[nH]2)S[C@H]1c1ccccc1` (some centres undefined), the GI50 is inactive: 25.2 µM.
As for `O=S(=O)(Nc1nc2ccccc2nc1Nc1ccc2ccccc2c1)c1ccccc1`, the GI50 was inactive: 17.7 µM.
Regarding `Cc1cc2c(-c3ccccc3)cc(=O)[nH]c2cc1N`, the GI50 was inactive: > 100 µM.
Consider `CCCCCCCCCCCCCCCCOCC(CCl)OP(=O)(O)OP(=O)(O)OCC1OC(n2ccc(N)nc2=O)C(O)C1O` (centres undefined), for which the GI50 was inactive: 59.7 µM.
As for `Cc1cc(S(=O)(=O)Nc2nc(N)n[nH]2)c(Cl)cc1Cl`, the GI50 is inactive: > 10 µM.
With `O=C(O)C(Cc1ccccc1)N1C(=O)c2ccccc2C1=O` (centres undefined), the GI50 is inactive: > 100 µM.
The same measure for `NC(C(=O)O)c1ccc(C(=O)O)cc1` (centres undefined): inactive: > 100 µM.
In the case of `CN(C)CCNc1ccc(CO)c2oc3ccc(O)cc3c(=O)c12`, the GI50 is inactive: 13.3 µM.
As to `NC(=O)NC(=O)c1cccc(NC(=O)CI)c1`, the GI50 is active: 0.448 µM.
